# Test results reported in the supplement of paper PMC6451100.
# This is one part of the list. These are enrichments in a pooled selection; single values are uncertain.
# Target: T1, Drosophila AGO2 (FLAG-tagged, S2-R+ lysate) (UniProt Q9VUQ5)
# T1 sequence: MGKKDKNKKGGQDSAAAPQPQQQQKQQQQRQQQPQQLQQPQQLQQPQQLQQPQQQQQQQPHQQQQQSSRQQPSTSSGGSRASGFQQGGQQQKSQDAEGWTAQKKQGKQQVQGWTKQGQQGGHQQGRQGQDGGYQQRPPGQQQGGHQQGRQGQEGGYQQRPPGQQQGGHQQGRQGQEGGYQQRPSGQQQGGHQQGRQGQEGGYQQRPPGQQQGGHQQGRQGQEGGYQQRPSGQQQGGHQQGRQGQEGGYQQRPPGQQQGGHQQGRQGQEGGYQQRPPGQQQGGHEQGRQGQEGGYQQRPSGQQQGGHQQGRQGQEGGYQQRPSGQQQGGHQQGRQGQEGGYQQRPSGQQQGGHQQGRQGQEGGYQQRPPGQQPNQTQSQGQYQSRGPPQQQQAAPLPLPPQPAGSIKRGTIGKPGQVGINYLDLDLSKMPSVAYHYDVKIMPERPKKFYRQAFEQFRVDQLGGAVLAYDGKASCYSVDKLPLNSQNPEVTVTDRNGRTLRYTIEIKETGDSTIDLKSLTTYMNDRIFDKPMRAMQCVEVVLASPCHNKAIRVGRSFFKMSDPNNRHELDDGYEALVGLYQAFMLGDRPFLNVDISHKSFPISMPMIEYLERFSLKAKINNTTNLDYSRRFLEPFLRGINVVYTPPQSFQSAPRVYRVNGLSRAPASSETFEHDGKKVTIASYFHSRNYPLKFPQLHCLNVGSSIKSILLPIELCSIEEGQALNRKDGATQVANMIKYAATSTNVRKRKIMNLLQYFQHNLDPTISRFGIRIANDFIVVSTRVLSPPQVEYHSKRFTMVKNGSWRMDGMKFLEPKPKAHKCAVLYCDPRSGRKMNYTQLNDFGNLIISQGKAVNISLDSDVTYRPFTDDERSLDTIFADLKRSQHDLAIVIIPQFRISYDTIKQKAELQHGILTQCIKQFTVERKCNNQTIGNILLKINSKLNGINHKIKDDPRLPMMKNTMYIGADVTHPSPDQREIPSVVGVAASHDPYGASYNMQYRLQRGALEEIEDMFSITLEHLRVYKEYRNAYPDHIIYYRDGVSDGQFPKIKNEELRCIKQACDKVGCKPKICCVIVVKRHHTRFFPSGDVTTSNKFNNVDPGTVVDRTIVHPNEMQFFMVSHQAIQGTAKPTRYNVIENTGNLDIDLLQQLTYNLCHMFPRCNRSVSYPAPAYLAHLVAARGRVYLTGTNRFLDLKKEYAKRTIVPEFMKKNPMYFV
# Experiment: AGO2 loading enrichment factor (IP read count / input read count, not library-size normalised) (ratio); higher = more efficient loading into AGO2
# Details: randomized region: 5' 5N of miR-317 loop
# Method: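 HISSA: 5'-phosphorylated, 32P-labelled 20-nt ssRNA oligos (miR-317 loop, first 5 nt randomized, constant 3' part TGAAATGCAAGCAAG as printed in methods; DNA letters for RNA) incubated 1 h at 25°C in lysate of S2-R+ cells expressing FLAG-AGO2. FLAG-AGO2 was immunopurified and bound oligos were sequenced after splinted ligation. Enrichment factor = IP read count / input read count (raw counts, not library-size normalised); single library, no replicates.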
# 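Further: Per-sequence enrichment computed with FASTAptamer, counting only reads that carry the expected constant 3′ region.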
row,Sequence,AGO2 loading enrichment factor
1,GTTTTTGAAATGCAAGCAAG,0.366
2,CTCTATGAAATGCAAGCAAG,0.466
3,ACGGTTGAAATGCAAGCAAG,0.439
4,TCGGTTGAAATGCAAGCAAG,0.505
5,AGAAATGAAATGCAAGCAAG,0.455
6,TCGGATGAAATGCAAGCAAG,0.923
7,TGCGCTGAAATGCAAGCAAG,0.161
8,CACGGTGAAATGCAAGCAAG,0.458
9,AGGAGTGAAATGCAAGCAAG,2.25
10,GGCCTTGAAATGCAAGCAAG,0.232
11,CGCGCTGAAATGCAAGCAAG,0.114
12,TTGCCTGAAATGCAAGCAAG,0.32
13,TTGCATGAAATGCAAGCAAG,0.132
14,CATGGTGAAATGCAAGCAAG,0.348
15,GAGCCTGAAATGCAAGCAAG,0.263
16,TAACATGAAATGCAAGCAAG,0.362
17,AGAAGTGAAATGCAAGCAAG,0.468
18,CTTTCTGAAATGCAAGCAAG,0.0488
19,TGTAGTGAAATGCAAGCAAG,0.272
20,TAGCATGAAATGCAAGCAAG,0.221
21,GATCGTGAAATGCAAGCAAG,0.655
22,CGGGCTGAAATGCAAGCAAG,0.278
23,ACGCATGAAATGCAAGCAAG,0.223
24,TTATATGAAATGCAAGCAAG,0.644
25,TGGCGTGAAATGCAAGCAAG,0.547

row,Sequence,AGO2 loading enrichment factor
1,TCTGCTGAAATGCAAGCAAG,0.587
2,AAGTTTGAAATGCAAGCAAG,0.163
3,CTGCTTGAAATGCAAGCAAG,1.78
4,AGACGTGAAATGCAAGCAAG,0.425
5,TCAATTGAAATGCAAGCAAG,0.438
6,AAGCGTGAAATGCAAGCAAG,0.328
7,GGTAATGAAATGCAAGCAAG,0.581
8,CGGAGTGAAATGCAAGCAAG,1.64
9,ACTGCTGAAATGCAAGCAAG,0.149
10,AACCCTGAAATGCAAGCAAG,0.373
11,AAAACTGAAATGCAAGCAAG,0.371
12,GACACTGAAATGCAAGCAAG,0.42
13,GTACCTGAAATGCAAGCAAG,0.392
14,AATATTGAAATGCAAGCAAG,0.344
15,CTCGATGAAATGCAAGCAAG,0.485
16,AAACATGAAATGCAAGCAAG,0.415
17,CGGAATGAAATGCAAGCAAG,0.62
18,GACCCTGAAATGCAAGCAAG,0.815
19,GAGATTGAAATGCAAGCAAG,0.566
20,ATGAGTGAAATGCAAGCAAG,0.628
21,CCCGATGAAATGCAAGCAAG,0.37
22,GGCGTTGAAATGCAAGCAAG,0.55
23,ACTGTTGAAATGCAAGCAAG,0.255
24,GGTTTTGAAATGCAAGCAAG,0.559
25,GACAATGAAATGCAAGCAAG,0.428

row,Sequence,AGO2 loading enrichment factor
1,CTGGCTGAAATGCAAGCAAG,0.0417
2,TCGACTGAAATGCAAGCAAG,0.222
3,AGTCCTGAAATGCAAGCAAG,0.448
4,ATACTTGAAATGCAAGCAAG,0.347
5,GCGATTGAAATGCAAGCAAG,0.3
6,GCGGTTGAAATGCAAGCAAG,0.422
7,GCCAGTGAAATGCAAGCAAG,0.305
8,TTGATTGAAATGCAAGCAAG,0.39
9,TGTTTTGAAATGCAAGCAAG,0.191
10,GTCGATGAAATGCAAGCAAG,0.942
11,CATAGTGAAATGCAAGCAAG,0.286
12,CGGTGTGAAATGCAAGCAAG,0.647
13,CCTCTTGAAATGCAAGCAAG,0.601
14,ACATGTGAAATGCAAGCAAG,0.281
15,GGCTGTGAAATGCAAGCAAG,0.369
16,TCCTGTGAAATGCAAGCAAG,0.424
17,CTGATTGAAATGCAAGCAAG,0.625
18,AACGTTGAAATGCAAGCAAG,0.416
19,TGATTTGAAATGCAAGCAAG,0.352
20,ATTCTTGAAATGCAAGCAAG,0.217
21,AACCTTGAAATGCAAGCAAG,0.0808
22,TATAATGAAATGCAAGCAAG,0.399
23,GAGCATGAAATGCAAGCAAG,0.281
24,GACTATGAAATGCAAGCAAG,0.355
25,CAGTATGAAATGCAAGCAAG,0.376

row,Sequence,AGO2 loading enrichment factor
1,GCAGTTGAAATGCAAGCAAG,0.293
2,TCGAATGAAATGCAAGCAAG,0.41
3,ATGCCTGAAATGCAAGCAAG,0.505
4,CCACTTGAAATGCAAGCAAG,0.194
5,AGACATGAAATGCAAGCAAG,0.386
6,CAGCGTGAAATGCAAGCAAG,0.319
7,CGATCTGAAATGCAAGCAAG,0.462
8,TGCGGTGAAATGCAAGCAAG,0.18
9,ACGGGTGAAATGCAAGCAAG,1.9
10,AATGTTGAAATGCAAGCAAG,0.237
11,TGAGTTGAAATGCAAGCAAG,0.373
12,GAATGTGAAATGCAAGCAAG,0.297
13,AAGGTTGAAATGCAAGCAAG,0.458
14,CTTCGTGAAATGCAAGCAAG,0.168
15,TTTCGTGAAATGCAAGCAAG,0.508
16,GTGGATGAAATGCAAGCAAG,2.17
17,CTCTCTGAAATGCAAGCAAG,0.225
18,ATTGGTGAAATGCAAGCAAG,0.436
19,GCAGCTGAAATGCAAGCAAG,0.0823
20,TTAACTGAAATGCAAGCAAG,0.398
21,CATTCTGAAATGCAAGCAAG,0.187
22,CACTTTGAAATGCAAGCAAG,0.248
23,ACGTTTGAAATGCAAGCAAG,0.117
24,GTCTGTGAAATGCAAGCAAG,0.293
25,TCCCGTGAAATGCAAGCAAG,0.819

row,Sequence,AGO2 loading enrichment factor
1,CGTTTTGAAATGCAAGCAAG,0.29
2,CTATCTGAAATGCAAGCAAG,0.537
3,ATCCATGAAATGCAAGCAAG,0.314
4,CTCACTGAAATGCAAGCAAG,0.326
5,CTAGTTGAAATGCAAGCAAG,0.236
6,AAACGTGAAATGCAAGCAAG,0.33
7,GGACTTGAAATGCAAGCAAG,0.151
8,TACACTGAAATGCAAGCAAG,0.412
9,ATAGATGAAATGCAAGCAAG,0.428
10,ACGCCTGAAATGCAAGCAAG,0.251
11,CGGATTGAAATGCAAGCAAG,0.538
12,CTTGATGAAATGCAAGCAAG,0.0333
13,TAAGATGAAATGCAAGCAAG,0.39
14,ATACGTGAAATGCAAGCAAG,0.451
15,GAGACTGAAATGCAAGCAAG,0.458
16,TTAGTTGAAATGCAAGCAAG,0.46
17,CGCGATGAAATGCAAGCAAG,0.369
18,TGGGCTGAAATGCAAGCAAG,0.322
19,TGGCCTGAAATGCAAGCAAG,0.493
20,CAAAATGAAATGCAAGCAAG,0.359
21,ACGCGTGAAATGCAAGCAAG,0.345
22,TAGTTTGAAATGCAAGCAAG,0.122
23,CTTTATGAAATGCAAGCAAG,0.28
24,GTTTGTGAAATGCAAGCAAG,0.0838
25,CTCGTTGAAATGCAAGCAAG,0.137
